Test results taken from US20260117202A1.
The source holds more than one record for some entries. They are shown here; other results are not. An entry can have further records. Results that share an entry read as repeated measurements on other runs, samples or individuals.

Target: FHCS-1 (RSV strain A2) (UniProt P03420)
Assay: ELISA; F coated 156.3 ng/ml; stored -80° C.

Synagis® (antibody)
OD value: 0.027 OD and 0.008 OD [lines of one column]
